Results on 98 compounds are retold here after PubChem BioAssay AID1159614 (National Center for Advancing Translational Sciences (NCATS), 2016).

In all, about 45,000 compounds went through this assay and about 65 (0.1%) were called active. The call rests on the fitted dose curve; in most records, active means well fitted activation curve with a large enough effect; inconclusive means small, poorly fitted or top-dose-only effect; inactive means no such curve, though single readings can be large or run the other way. This is one part of the list.

Chain of UniProt P54803 (P54803 whole entry, looked up): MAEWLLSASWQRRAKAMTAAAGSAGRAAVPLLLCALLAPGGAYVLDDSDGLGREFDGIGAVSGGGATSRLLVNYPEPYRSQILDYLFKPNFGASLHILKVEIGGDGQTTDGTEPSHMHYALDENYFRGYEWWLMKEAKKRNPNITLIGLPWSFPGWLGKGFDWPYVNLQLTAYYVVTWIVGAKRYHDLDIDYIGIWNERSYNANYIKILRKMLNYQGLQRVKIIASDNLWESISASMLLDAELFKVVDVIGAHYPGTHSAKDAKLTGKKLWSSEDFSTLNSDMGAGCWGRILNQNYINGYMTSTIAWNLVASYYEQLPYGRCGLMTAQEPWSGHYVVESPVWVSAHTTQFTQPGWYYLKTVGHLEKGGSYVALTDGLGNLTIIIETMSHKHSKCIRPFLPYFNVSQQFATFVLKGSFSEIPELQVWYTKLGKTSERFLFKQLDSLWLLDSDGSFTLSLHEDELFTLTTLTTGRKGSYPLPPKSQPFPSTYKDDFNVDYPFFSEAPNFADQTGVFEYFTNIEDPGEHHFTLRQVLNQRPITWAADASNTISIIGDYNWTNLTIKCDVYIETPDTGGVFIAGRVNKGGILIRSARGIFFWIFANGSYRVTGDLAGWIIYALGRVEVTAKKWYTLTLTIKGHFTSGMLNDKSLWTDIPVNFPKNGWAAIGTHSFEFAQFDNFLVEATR

This test addresses Galactocerebrosidase (Homo sapiens) (UniProt P54803). Description: A Novel Cell-Based Assay to Identify Small Molecules for B -Galactocerebrosidase. Further: 0% is about no effect; nearly all actives have a fitted effect of over 65% in size. The following applies: 145M-Twi-hGALC-G270D cells (Twitcher mouse brain line with human GALC G270D), HMU-beta-Gal fluorescence, 48 h; series mostly up to 57.5 µM; activation: at the top concentration. The gist of the method:
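Live 145M-Twi cells (Twitcher mouse brain-derived, GALC-null) stably expressing human GALC-G270D, with a wild-type GALC line, were compound-treated. Residual GALC activity was then read as fluorescence from 0.1 mM final HMU-β-gal at pH 5.2; higher signal means activation.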
In the case of `CCc1ccc(C(=O)c2cn(CC(=O)Nc3cccc(OC)c3)c3cc4c(cc3c2=O)OCO4)cc1`, the “activation” value was inactive: -19.9%.
Next, `COc1ccc(C)cc1NC(=O)C1CCN(S(=O)(=O)c2cc(Br)cc3c2N(C(C)=O)CC3)CC1`: inactive: -0.0027%; `CCc1nn(CC(=O)N2CCCCC2)c(=O)c2cc3occc3n12`: inactive: -13.1%; `CCOC(=O)c1noc2ncn(CC(=O)Nc3cccc(C(F)(F)F)c3)c(=O)c12`: inactive: -17.8%.
For `CCOC(=O)C1=C(CS(=O)(=O)c2ccc(F)c(C)c2)NC(=O)NC1c1ccccc1OC` (stereo not drawn), the “activation” value is inactive: -17.2%.
As to `CCCc1nnc(NC(=O)c2nc(SCC)ncc2Cl)s1`, the “activation” value is inactive: -22%.
Next, `Cc1cccc(NC(=O)CCn2cnc3ccccc3c2=O)c1`: inactive: -0.166%; `CCOc1ccc(NC(=O)N2CCN(c3nnc(C)c4c(C)n(-c5ccccc5)nc34)CC2)cc1`: inactive: -6.1%; `CN(C)/N=N/c1nc[nH]c1C(N)=O`: inactive: -15.8%.
`O=c1c(=O)n(-c2ccc(F)c(F)c2)ccn1Cc1ccc(F)cc1Cl`: the “activation” value was inactive: -7.37%.
As for `CCOc1ccccc1NC(=O)CN(C)S(=O)(=O)c1ccc(C(=O)N2CCOCC2)s1`, the “activation” value is inactive: -14.5%.
For `COc1ccc(C)cc1NC(=O)C1CCCN(c2ncnc3onc(C)c23)C1` (stereo not drawn), the “activation” value was inactive: -14.7%.
In the case of `Cc1ccc2c(=O)cc(C(=O)Nc3sc4c(c3C(=O)NCC3CCCO3)CCC4)oc2c1` (stereo not drawn) it was inactive: -10.5%; in that of `Cc1oc(-c2ccccc2Cl)nc1CS(=O)(=O)CC(=O)NCc1ccc(F)cc1`, inactive: -18.7%; in that of `CCC(C(=O)NCc1ccccc1OC)n1nc(C)n2c(cc3occc32)c1=O` (stereo not drawn), inactive: -9.75%.
Turning to `CCCCn1c(=O)n(-c2cc(OC)ccc2OC)c(=O)c2c3c(sc21)CN(C(C)=O)CC3`, the “activation” value was inactive: -10.3%.
In the case of `COc1ccc(-n2nc(C(=O)Nc3cc(C)ccn3)c3c4ccccc4n(C)c3c2=O)cc1`, the “activation” value is inactive: -15.3%.
In the case of `CCOc1ccc(-n2nc3ccc(NC(=O)c4ccc(OC)c(Cl)c4)cc3n2)cc1` it was inactive: -8.63%; in that of `O=C(CC1N=C2c3ccccc3N=C(SCc3ccccc3Cl)N2C1=O)NCCc1ccccc1` (stereo not drawn), inactive: -8.87%; in that of `Cc1cc(Nc2cccc(Cl)c2)nc2ccc(NC(=O)c3cncc(Br)c3)cc12`, inactive: -5.48%.
On to `CCOC(=O)C1=C(CN2CCN(c3ccccc3OC)CC2)NC(=O)NC1c1ccccc1` (stereo not drawn), for which the “activation” value is inactive: -35%.
In the case of `O=C(CN1CCCN(Cc2ccccc2F)S1(=O)=O)Nc1ccc(F)c(Cl)c1`, the “activation” value was inactive: -9%.
For the compound `O=C(Nc1ccc(C(=O)O)c(O)c1)c1ccccc1`, the “activation” value was inactive: -12%.
Turning to `CC(C)NC(=O)N1[C@H](c2cccs2)[C@@H](C)C(=O)[C@@H](C)[C@@H]1c1cccs1`, the “activation” value was inactive: -11.8%.
Next, `Cc1cc(C)cc(NC(=O)N2CCC(CN3CCOCC3)CC2)c1`: inactive: -18.7%; `CCOC(=O)Cn1c(=O)n(CC2CCCO2)c2nc(-c3ccccc3)nc(C(N)=O)c21` (stereo not drawn): inactive: -18.3%.
Next, `COc1ccc(C(=O)Nc2ccc(N(C)Cc3ccccc3)c(C(=O)O)c2)cc1`: inactive: -6.22%; `CCc1cccc(C)c1NC(=O)Cn1nc(C)n2cccc2c1=O`: inactive: -13.8%.
For the compound `COC(=O)c1cc2oc(C)cc2n1CC(=O)Nc1ccc(C(C)C)cc1`, the “activation” value is inactive: -38.5%.
Next, `CCCCNC(=O)c1ccc2c(=O)n(Cc3ccc(OC)cc3)c(=O)[nH]c2c1`: inactive: -8.01%; `COc1ccc(-c2nnc(SCC(=O)NCCC(C)C)nc2-c2ccc(OC)c(OC)c2)cc1OC`: inactive: -14.8%.
In the case of `Cc1ccc(CNCc2ccccc2Cl)s1` it was inactive: -16.3%; in that of `COCc1cc(C)nc2c1C(=O)NC(c1ccc(F)cc1)N2Cc1ccccc1` (stereo not drawn), inactive: -14.5%.
Regarding `CCOC(=O)c1c(C)oc2nc(C)nc(NCC3CCN(Cc4ccc(C)cc4)CC3)c12`, the “activation” value was inactive: -12.2%.
In the case of `Cc1ccccc1CSc1cn(CC(=O)N2CCCCC2)c2ccccc12` it was inactive: -9.65%; in that of `CC1Cc2ccccc2N1C(=O)CSc1nc2ccc(NC(=O)COc3ccccc3)cc2s1` (stereo not drawn), inactive: -24.2%; in that of `CC1=C(C(=O)NCc2cccc(F)c2)C2(CCCCC2)OC1=O`, inactive: 15.1%.
Take `N#Cc1c(C(F)(F)F)cc(-c2cccs2)nc1SCc1ccc(F)cc1`: the “activation” value is inactive: -16%.
For the compound `CCCCOC(=O)c1ccc(N)cc1`, the “activation” value is inactive: -11.5%.
In the case of `CCOC(=O)C(C)Sc1ccc2nnc(CCNS(=O)(=O)c3ccc(C)cc3)n2n1` (stereo not drawn), the “activation” value was inactive: -9.65%.
`CCOc1ccc(CCNC(=O)c2oc(=O)c3ccccc3c2-c2ccc(C)cc2)cc1OCC`: the “activation” value was inactive: -4.19%.
Regarding `Cc1ccc(NC(=O)CCS(=O)(=O)c2ccc(Br)s2)c(Br)c1`, the “activation” value is inactive: -8.85%.
`CC(C)(C)c1ccc(C(=O)NCCc2csc(-c3ccc(Cl)cc3)n2)cc1`: the “activation” value was inactive: -12.8%.
Turning to `Cc1nn(C)cc1CN(C)C(=O)c1cc(-c2ccccc2)nc2ccc(Br)cc12`, the “activation” value is inactive: -8.4%.
Next, `O=C(Nc1cccc(C(F)(F)F)c1)c1cnn(-c2cccc(F)c2)c1C1CCNCC1`: inactive: -19.8%; `Cc1ccc(C)c(N2CCN(C(=O)CN3C(=O)COc4ccc(S(=O)(=O)N5CCCC5)cc43)CC2)c1`: inactive: -23%; `CCc1cccc(NC(=O)CN(c2ccc(C)c(C)c2)S(=O)(=O)c2ccsc2C(=O)OC)c1`: inactive: 2.68%.
Consider `COc1ccc(C(=O)NCC(c2ccco2)S(=O)(=O)c2ccc(F)cc2)cc1` (stereo not drawn), for which the “activation” value was inactive: -20.3%.
Next, `CC(C)OCCCNc1ncnc2sc3c(c12)CCCC3`: inactive: -35.9%; `CCOC(=O)c1c(C)[nH]c(C)c1S(=O)(=O)N1CCC(C(=O)Nc2ccc(OCC)cc2)CC1`: inactive: -8.55%.
Regarding `CCCCn1cc(S(=O)(=O)c2cc(C)ccc2C)c(=O)c2cc(F)c(N3CCC(C)CC3)cc21`, the “activation” value is inactive: -8.09%.
For the compound `Cc1ccc(C)c(Cn2c(=O)n(CCCCC(=O)NCc3ccc4c(c3)OCO4)c(=O)c3ccccc32)c1`, the “activation” value was inactive: -0.417%.
Consider `CCc1ccccc1NC(=O)Nc1c(C)n(C)n(-c2ccccc2)c1=O`, for which the “activation” value was inactive: -25.9%.
As to `CCCC(=O)Nc1cc2nn(-c3ccccc3)nc2cc1C`, the “activation” value was inactive: -9.71%.
With `CCOC(=O)c1ccc(N2C(=O)c3[nH]nc(-c4ccc(C)cc4)c3C2c2cccs2)cc1` (stereo not drawn), the “activation” value was inactive: 1.72%.
`CCCc1nc2nc(C)c(NS(=O)(=O)c3ccc(CC(C)C)cc3)c(=O)n2[nH]1`: the “activation” value is inactive: -7.2%.
As for `CSc1ncc(C(=O)Nc2ccccc2C(F)(F)F)c(-c2ccccc2)n1`, the “activation” value is inactive: -11.5%.
For `CCCCN(CCCC)CCCNC(=O)Cn1cc2c(n1)-c1c(oc(C(=O)N3CCCC3)c1C)CC2`, the “activation” value was inactive: -25.8%.
As to `CCCn1c(CCC(=O)Nc2cc(OC)cc(OC)c2)nc2cccnc21`, the “activation” value is inactive: -11.7%.
Consider `CCCCOc1ccc(Cn2c(=O)sc3ccccc32)cc1OC`, for which the “activation” value was inactive: -12.7%.
In the case of `COC(=O)c1scc(-c2ccc(C)cc2)c1S(=O)(=O)Nc1cc(Cl)c(OC)cc1OC` it was inactive: -12.9%.
As to `CCOC(=O)c1[nH]cnc1C(=O)Nc1cccc(OC)c1`, the “activation” value is inactive: -20.8%.
Next, `Cc1ccccc1CCNC(=O)c1ccc2c(c1)nc1n2CCOC1`: inactive: -0.565%.
Regarding `CCCn1c(CCC(=O)Nc2cc(C(=O)OC)cc(C(=O)OC)c2)nc2cccnc21`, the “activation” value is inactive: -16.1%.
Take `CCSc1ncc(Cl)c(C(=O)Nc2nc3ccc(S(C)(=O)=O)cc3s2)n1`: the “activation” value was inactive: 3.91%.
As to `CCCN1CCN(c2nnc(-n3cccc3C(=O)Nc3cc(Cl)ccc3C)s2)CC1`, the “activation” value is inactive: -10.7%.
In the case of `COc1ccc(-n2c(=O)c3sc4ccccc4c3n(C)c2=O)cc1` it was inactive: -5.13%.
Regarding `Cc1ccc(NC(=O)C2CCCN(S(=O)(=O)c3cccc4nsnc34)C2)cc1C` (stereo not drawn), the “activation” value is inactive: -19.2%.
Consider `Cc1cc(NC(=O)CCn2c(=O)c3cccn3c3cccnc32)ccc1Br`, for which the “activation” value is inactive: 2.11%.
In the case of `CCC(=O)N1c2ccccc2CC1C(=O)NCCc1cc(OC)c(OC)c(OC)c1` (stereo not drawn) it was inactive: -3.12%; in that of `NC(=O)Cc1cccc(C(=O)c2ccccc2)c1N`, inactive: -18.2%.
`CCOC(=O)Cc1ccc(NC(=O)N2CCSc3ccccc32)cc1`: the “activation” value is inactive: -9.73%.
For the compound `Cc1ccc(-c2nc(CS(=O)CC(=O)NCc3ccccc3Cl)c(C)o2)cc1` (stereo not drawn), the “activation” value is inactive: -15.6%.
Turning to `O=c1ccc2cc(S(=O)(=O)Nc3ccc(F)c(Cl)c3)ccc2[nH]1`, the “activation” value was inactive: -8.84%.
Take `CCOc1ccc2nc(SCC(=O)Nc3ccc(F)cc3)nc(-c3ccccc3)c2c1`: the “activation” value is inactive: 14.5%.
As for `COCCNC(=O)C1CCN(C(=O)c2cc3sccc3n2Cc2ccc(Cl)cc2)CC1`, the “activation” value was inactive: 10.6%.
In the case of `CCCN(CCC)CCCNC(=O)C1CCCN(Cc2nc(-c3ccc(Cl)cc3)oc2C)C1` (stereo not drawn), the “activation” value was inactive: 17.9%.
As to `COc1ccccc1NC(=O)CSC1=Nc2ccccc2C2=NC(CCC(=O)NCc3ccco3)C(=O)N12` (stereo not drawn), the “activation” value was inactive: -10.6%.
Regarding `O=S(=O)(c1ccc(Cl)cc1)c1nc(-c2cccs2)oc1SCc1ccc(F)cc1`, the “activation” value is inactive: -13.5%.
For the compound `COc1cccc(CNC(=O)Cc2c(C)c3c(cc(C)c4c(C)c(C)oc43)oc2=O)c1`, the “activation” value is inactive: -9.29%.
Turning to `Cn1nnc2c(NCc3ccc(Cl)cc3)ncnc21`, the “activation” value was inactive: -11.6%.
Next, `Cc1ccc(Cn2c(=O)n(CCc3ccc(Cl)cc3)c(=O)c3ccccc32)cc1`: inactive: -16.2%; `CCc1ccc(CNC(=O)c2cc3n(n2)CCCN(Cc2ccccc2)C3=O)cc1`: inactive: -14.9%.
Turning to `COc1ccc(NC(=O)Cn2c(=O)n(Cc3ccccc3OC)c(=O)c3cccnc32)cc1Cl`, the “activation” value is inactive: -21%.
Regarding `Cc1ccc(-n2ncc3c(NC(C)c4ccccc4)ncnc32)cc1` (stereo not drawn), the “activation” value was inactive: -1.38%.
Regarding `CC1=C(C(=O)Nc2ccc(Cl)cc2)C(c2ccccc2F)n2nc(SCc3cccc(Cl)c3)nc2N1` (stereo not drawn), the “activation” value is inactive: -6.97%.
For the compound `COc1ccc(OC)c(NC(=O)C2Cc3ccccc3CN2S(=O)(=O)c2ccc(F)cc2)c1` (stereo not drawn), the “activation” value was inactive: -5.17%.
For `Cc1cccc(Nc2nc(N)nc(N)c2S(=O)(=O)c2ccccc2)c1`, the “activation” value was inactive: -5.57%.
For the compound `O=C(c1ccccc1F)N1c2ncnn2C2(CCCCC2)[C@@H]2CCCC[C@@H]21`, the “activation” value was inactive: -12.3%.
As to `Cc1cccc(NC(=O)CSc2ncc(-c3ccccc3)[nH]2)c1C`, the “activation” value is inactive: -12.6%.
For the compound `CCSc1ncc(Cl)c(C(=O)Nc2nnc(CC)s2)n1`, the “activation” value is inactive: -13.4%.
As to `O=C(C1CCN(c2ncnc3c2nc2n3CCCCC2)CC1)N1CCN(c2ccccc2F)CC1`, the “activation” value was inactive: -2.44%.
`CCOc1ccc2oc(=O)cc(CN3CCN(C(=O)c4ccc(OC)c(OC)c4)CC3)c2c1`: the “activation” value was inactive: 2.48%.
Take `Cc1c(C)n(Cc2ccc(F)cc2)c2ccc(C(=O)N3CCN(c4ccc(F)cc4)CC3)cc12`: the “activation” value was inactive: -12.9%.
With `COc1ccc(C2=C(C)C(N3CCC(C(=O)Nc4ccccc4F)CC3)=NS2(=O)=O)cc1`, the “activation” value was inactive: -0.75%.
Take `CCC(C(=O)NCCc1ccccc1)n1nc(C)c2sc3ccccc3c2c1=O` (stereo not drawn): the “activation” value is inactive: 7.2%.
For `Cc1ccc(-n2c(=O)c3c4c(sc3n(Cc3cc(=O)n5cc(Cl)ccc5n3)c2=O)CCC4)cc1C`, the “activation” value is inactive: -16.3%.
In the case of `CCOC(=O)c1ccccc1NC(=O)CN(c1cccc(C)c1C)S(=O)(=O)c1ccccc1` it was inactive: -1.04%.
